# Paper PMC6919601, “Identification of Plasmodium dipeptidyl aminopeptidase allosteric inhibitors by high throughput screening” (PLoS ONE, 2019)
# The campaign covered roughly 110,000 compounds. About 230 (0.21%) showed an effect of 50% or more. The list shows a part of the results.
# Target: DPAP1 (Plasmodium falciparum, UniProt Q8IIJ9)
# Assay: primary screen, percent inhibition; read by cleavage of a fluorogenic dipeptide substrate; higher = more effect of the substance
# Parameters: species or system P. falciparum D10 trophozoite lysates; single well
# 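Further: 30 min substrate incubation versus DMSO and 10 µM JCP410 controls.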
# DPAP1, sequence (Q8IIJ9 whole entry, looked up): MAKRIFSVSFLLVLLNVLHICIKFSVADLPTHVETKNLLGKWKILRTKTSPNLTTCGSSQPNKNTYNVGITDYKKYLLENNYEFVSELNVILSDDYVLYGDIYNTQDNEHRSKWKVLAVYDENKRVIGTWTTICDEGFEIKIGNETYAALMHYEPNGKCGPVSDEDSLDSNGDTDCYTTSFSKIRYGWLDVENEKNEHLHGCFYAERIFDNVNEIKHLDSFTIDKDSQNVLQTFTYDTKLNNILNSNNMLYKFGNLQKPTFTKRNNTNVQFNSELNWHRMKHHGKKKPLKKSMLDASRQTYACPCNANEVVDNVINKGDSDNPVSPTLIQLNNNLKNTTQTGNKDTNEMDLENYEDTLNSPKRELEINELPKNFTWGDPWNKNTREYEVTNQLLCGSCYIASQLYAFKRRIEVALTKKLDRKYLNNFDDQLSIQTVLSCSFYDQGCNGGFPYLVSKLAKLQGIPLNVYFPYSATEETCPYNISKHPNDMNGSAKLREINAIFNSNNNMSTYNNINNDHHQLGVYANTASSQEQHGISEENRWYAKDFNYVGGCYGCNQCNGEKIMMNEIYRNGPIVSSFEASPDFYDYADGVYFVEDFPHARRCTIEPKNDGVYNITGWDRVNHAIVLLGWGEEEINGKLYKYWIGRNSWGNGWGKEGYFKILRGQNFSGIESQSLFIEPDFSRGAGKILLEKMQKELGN
row,SMILES,% Inhibition @ 10 uM
1,CCOC(=O)c1oc2ccc(S(=O)(=O)n3nc(-c4ccccc4)cc3N)cc2c1C,1.15%
2,CCCCN(C)C(=O)c1nn(C)c2c1CSc1ccccc1-2,17%
3,CC(=O)c1ccc(NC(=O)C2CCCC2)cc1,-2.98%
4,CCOC(=O)c1c(NC(=O)C2(C)Cc3ccccc3C(=O)O2)sc2c1CCCC2 (stereo not drawn),-4.24%
5,Cc1nn(-c2ccc(F)cc2)c(-n2cccc2)c1C(=O)NCCCN1CCc2ccccc2C1,-3.72%
6,Cc1ccc(NC(c2ccccc2)c2ccncc2)cc1 (stereo not drawn),8.99%
7,COc1ccc2c(=O)c(Oc3ccc(C(C)(C)C)cc3)coc2c1,-1.4%
8,COc1ccc(CNC(=O)CN(C)S(=O)(=O)c2ccc(Br)s2)cc1,-3.87%
9,COc1ccccc1CNC(=O)/C(C#N)=C/c1ccc(OC)c(OC)c1OC,-9.56%
10,COc1cccc(OC)c1C(=O)Nc1cccc2ccccc12,-0.261%
11,COc1ccc(/C=C2/NC(=O)N(CC(=O)Nc3cccc(C)c3)C2=O)cc1O,9.79%
12,CC1CCN(c2ccc3nnc(CCC(=O)NC4CCCCC4)n3n2)CC1,0.842%
13,CN1CCN(S(=O)(=O)c2cccnc2N2CCN(CCO)CC2)CC1,-5.13%
14,Clc1cccc2c(NCCCN3CCOCC3)cnnc12,0.182%
15,COc1ccc(Br)cc1CNc1cccc(C)c1,-1.21%
16,NC(=O)C1CCN(C(=O)CCc2nnc3n(Cc4ccccc4Cl)c(=O)c4ccccc4n23)CC1,-2.42%
17,O=C(CC1Sc2ccccc2NC1=O)Nc1ccccc1Cl (stereo not drawn),-3.77%
18,CN1C(=O)C2(C(C#N)=C(N)OC3=C2C(=O)CCC3)c2cc(Br)ccc21 (stereo not drawn),-1.84%
19,C/N=C1\S/C(=C\c2ccc(N3CCOCC3)c(F)c2)C(=O)N1C,-0.473%
20,O=C(Nc1ccc(Cl)cc1)/C(=C/c1ccc(Br)cc1)NC(=O)c1ccco1,-2.87%
21,COc1ccc(C2C=C(c3cccs3)Nc3nc(-c4ccccc4)cn32)cc1 (stereo not drawn),1.02%
22,CCc1ccccc1N(CC(=O)Nc1ccc2c(c1)OCO2)S(=O)(=O)c1ccc(C)cc1,-4.31%
23,COc1ccccc1C(=O)O/N=C1/C=C(C(C)C)C(=O)C=C1C,2.95%
24,CC1CC(C)CN(S(=O)(=O)c2ccc3ncc(C(=O)NCCC4=CCCCC4)c(O)c3c2)C1 (stereo not drawn),-5.03%
25,Cc1ccccc1Cn1nnc2sc3c(c2c1=O)CCC(C)C3 (stereo not drawn),0.561%
26,Cc1cc(OCc2noc(-c3ccc(F)cc3)n2)cc(C)c1Cl,-0.946%
27,Cc1ccc(S(=O)(=O)c2nnn3c2nc(NCCCN2CCCC2=O)c2ccccc23)cc1,6.54%
